In publication PMC11437902:
These are yes or no findings as the source states them, for the method shown. In cells and extracts the contact can be indirect. Some results given as binding are weak or reduced against the parent protein; the word gives no strength.

Protein sequences, listed by entry. Tags and fused reporters are not part of them. Lines headed by an entry give the natural chain unless they say otherwise; changes in a name come on top. Chains listed by the source or under a name are the forms on record and can include a tag or linker. Residues count along the entry.
UniProt Q86WJ1: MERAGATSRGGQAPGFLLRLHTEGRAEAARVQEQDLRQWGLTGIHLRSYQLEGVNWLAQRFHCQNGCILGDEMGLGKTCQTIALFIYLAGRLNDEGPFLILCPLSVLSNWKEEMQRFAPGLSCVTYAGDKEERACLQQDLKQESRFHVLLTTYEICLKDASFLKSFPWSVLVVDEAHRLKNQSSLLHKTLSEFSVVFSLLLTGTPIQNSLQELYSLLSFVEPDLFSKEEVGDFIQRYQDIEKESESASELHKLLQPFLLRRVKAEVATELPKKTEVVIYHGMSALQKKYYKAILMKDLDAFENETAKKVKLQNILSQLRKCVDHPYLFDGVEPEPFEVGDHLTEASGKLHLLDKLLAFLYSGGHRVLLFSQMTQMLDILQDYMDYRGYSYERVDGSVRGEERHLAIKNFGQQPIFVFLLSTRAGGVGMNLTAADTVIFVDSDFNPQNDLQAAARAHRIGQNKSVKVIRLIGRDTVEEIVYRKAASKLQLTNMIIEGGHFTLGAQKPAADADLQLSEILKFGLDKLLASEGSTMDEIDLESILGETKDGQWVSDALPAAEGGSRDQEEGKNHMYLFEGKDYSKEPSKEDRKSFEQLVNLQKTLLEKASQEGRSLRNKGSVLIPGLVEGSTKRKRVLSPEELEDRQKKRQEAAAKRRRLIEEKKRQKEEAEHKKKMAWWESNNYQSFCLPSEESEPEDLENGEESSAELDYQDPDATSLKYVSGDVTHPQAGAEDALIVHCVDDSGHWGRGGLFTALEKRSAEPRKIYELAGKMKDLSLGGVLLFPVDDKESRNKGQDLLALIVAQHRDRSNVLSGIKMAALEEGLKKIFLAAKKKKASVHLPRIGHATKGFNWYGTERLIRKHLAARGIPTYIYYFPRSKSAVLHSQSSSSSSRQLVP
human CHD1L R611* truncated variant, 3×Flag-tagged: residues 1-610 of Q86WJ1
UniProt P09874: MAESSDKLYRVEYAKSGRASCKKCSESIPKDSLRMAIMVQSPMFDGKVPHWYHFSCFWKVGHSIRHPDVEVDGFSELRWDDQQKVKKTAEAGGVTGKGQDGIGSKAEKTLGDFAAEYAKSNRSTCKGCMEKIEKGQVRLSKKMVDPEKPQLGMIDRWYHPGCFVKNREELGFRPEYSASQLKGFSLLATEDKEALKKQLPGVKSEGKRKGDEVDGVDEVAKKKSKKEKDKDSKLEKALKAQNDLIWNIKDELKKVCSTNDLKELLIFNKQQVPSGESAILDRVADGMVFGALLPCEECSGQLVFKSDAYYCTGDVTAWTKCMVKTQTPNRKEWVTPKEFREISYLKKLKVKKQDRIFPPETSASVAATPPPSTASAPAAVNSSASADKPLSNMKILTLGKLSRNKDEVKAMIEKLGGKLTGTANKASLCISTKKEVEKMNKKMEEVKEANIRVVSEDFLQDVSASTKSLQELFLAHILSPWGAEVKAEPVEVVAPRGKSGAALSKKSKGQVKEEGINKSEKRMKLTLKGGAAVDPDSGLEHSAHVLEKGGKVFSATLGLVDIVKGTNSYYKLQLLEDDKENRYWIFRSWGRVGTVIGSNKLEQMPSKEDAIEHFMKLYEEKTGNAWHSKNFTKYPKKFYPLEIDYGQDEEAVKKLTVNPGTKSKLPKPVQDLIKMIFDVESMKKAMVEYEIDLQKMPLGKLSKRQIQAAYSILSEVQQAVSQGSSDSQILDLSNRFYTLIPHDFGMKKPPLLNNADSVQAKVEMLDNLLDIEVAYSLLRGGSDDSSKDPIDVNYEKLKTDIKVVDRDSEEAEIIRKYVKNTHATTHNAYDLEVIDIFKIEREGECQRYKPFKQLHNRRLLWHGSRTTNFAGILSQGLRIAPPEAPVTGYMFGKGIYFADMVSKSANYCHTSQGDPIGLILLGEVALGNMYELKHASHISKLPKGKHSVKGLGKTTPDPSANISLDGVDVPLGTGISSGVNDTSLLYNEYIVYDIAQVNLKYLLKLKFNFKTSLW

Columns and labels:
[1] = target: human CHD1L R319Q variant, 3×Flag-tagged (human) (UniProt Q86WJ1); assay: co-IP; lysates of 293FT cells transfected with flag-tagged CHD1L (WT or mutant) without PARP1 construct; endogenous PARP1; magnetic beads with anti-FLAG or anti-PARP1 antibody, overnight at 4 °C; western blot
[2] = target: human CHD1L wild-type, 3×Flag-tagged (human) (UniProt Q86WJ1); assay: as above
[3] = target: human CHD1L R611* truncated variant, 3×Flag-tagged (human) (UniProt Q86WJ1); assay: as above
[4] = target: human CHD1L R319Q variant, 3×Flag-tagged (human) (UniProt Q86WJ1); assay: co-IP; lysates of 293FT cells co-transfected with flag-tagged CHD1L (WT or mutant) and HA-tagged PARP1; magnetic beads with anti-FLAG or anti-HA antibody, overnight at 4 °C; mouse IgG beads as negative control; western blot
[5] = target: human CHD1L wild-type, 3×Flag-tagged (human) (UniProt Q86WJ1); assay: as above
[6] = target: human CHD1L R611* truncated variant, 3×Flag-tagged (human) (UniProt Q86WJ1); assay: as above

| binding [1] | binding [2] | binding [3] | binding [4] | binding [5] | binding [6] | Substance |
| --- | --- | --- | --- | --- | --- | --- |
| binds | binds | no binding |  |  |  | endogenous PARP1 protein (from UniProt P09874 1-1014) |
|  |  |  | binds | binds | no binding | human PARP1, HA-tagged (from UniProt P09874 1-1014) |
